# Patent US20170035903A1 (GAMAMABS PHARMA, published 2017)
# T1: AMHR-II-ECD-Fc (R&D System) (human, UniProt Q16671 18-149)
# T1 construct: Bought construct; also called recombinant AMHR-II; AMHR-II recombinant protein; not shown: Fc part of the bought AMHR-II-ECD-Fc (R&D System)
# T1 sequence: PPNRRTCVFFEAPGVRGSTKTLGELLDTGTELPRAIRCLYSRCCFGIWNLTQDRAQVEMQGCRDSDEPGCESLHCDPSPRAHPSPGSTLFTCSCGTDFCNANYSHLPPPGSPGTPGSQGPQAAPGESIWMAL
# B1: GM103 (3C23K-Antibody Drug Conjugate) (other)
# heavy: QVRLVQSGAEVKKPGASVKVSCKASGYTFTSYHIHWVRQAPGQRLEWMGWIYPGDDSTKYSQKFQGRVTITRDTSASTAYMELSSLRSEDTAVYYCTRGDRFAYWGQGTLVTVSS[human IgG1 constant region left out here]
# light: DIQMTQSPSTLSASVGDRVTITCRASSSVRYIAWYQQKPGKAPKLLTYPTSSLKSGVPSRFSGSGSGTEFTLTISSLQPDDFATYYCLQWSSYPWTFGGGTKVEIKRTVAAPSVFIFPPSDEQLKSGTASVVCLLNNFYPREAKVQWKVDNALQSGNSQESVTEQDSKDSTYSLSSTLTLSKADYEKHKVYACEVTHQGLSSPVTKSFNRGEC
# modifications: conjugated with a MMAE drug payload; residues not stated for GM103
# notes: the general formula bridges interchain disulfide bonds; also called ADC 3C23K; 3C23K antibody conjugated to the drug payload MMAE; copies: 2 + 2
# Target: T1, AMHR-II-ECD-Fc (R&D System)
# Test: ELISA, 50 ng per well AMHR-II-ECD-Fc coated, HRP anti-human F(ab')2 detection
# Method: ELISA plates (96 wells, Maxisorp, NUnc) were coated overnight at +4° C. with 50 ng per well of AMHR-II-ECD-Fc (R&D System). Coated ELISA plates were blocked with PBS-BSA 4% for 2 hours at 37° C. and washed three times with PBS-Tween20 0.05%. […] The bound anti-AMHR-II antibodies were detected by adding HRP-conjugated F(ab′)2 goat anti-human F(ab′2) fragment specific (Interchim) diluted at 1:10000 and incubated for one hour at 37° C. Revelation was done with TMB (Sigma) and the reaction was stopped by adding H2SO4 1N (v:v). Absorbances were measured at 450 nm and binding data curves were analysis using GraphPad Prism.
binder,measurement,value
B1,EC50,0.024 nM
